# Several values for one entry are separate records, joined by “and”; a condition that tells them apart may be missing. Identical values can stand only once. Inconclusive results, whose numbers are uncertain, are shown with a selection of clear calls. For some assays here: Potencies beside an inconclusive call are fits to weak or partial responses and may not hold up. Activity calls are given as the source filed them. Unless noted, the call rests on the fitted dose curve; in most records, active means well fitted curve in the direction sought with a large enough effect; inconclusive means small, poorly fitted or top-dose-only effect, or another doubt; inactive means no such curve, though single readings can be large; an effect the other way counts as inactive or inconclusive.
# Legend:
# [1] = molecular target: Cytochrome P450 2C9 (Homo sapiens) (UniProt P11712); assay: Cytochrome P450 family 2 subfamily C member 9 (CYP2C9) small molecule antagonists: luciferase biochemical (cell-free) qHTS assay (AID 1645842; active means well fitted curve in the direction sought with a large enough effect in the repeat runs; inconclusive means weak or mixed curves; inactive means no such curve, though single readings can be large; an effect the other way counts as inactive or inconclusive; further: nearly all actives have a fitted effect of over 55% in size; further: potency means the concentration at half of the fitted maximal effect)
# How it was run: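 Luminescence, after 20 min with luciferin detection reagent, reflected CYP2C9 turnover during a 1 h NADPH-driven reaction at 37C. Enzyme-substrate mix contained 0.4% bovine serum albumin and was preincubated with compound 10 min at room temperature.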
# Es-2 = assay: Primary qHTS to identify gynecologic anti-cancer compounds using libraries of approved drugs and bioactive compounds (AID 1345084); settings: Gynecologic cancer cell panel viability, ATPlite luminescence, 48 h; series mostly up to 57.5 µM; further: nearly all actives have a fitted effect of over 55% in size; further: potency means the concentration at half of the fitted maximal effect
# How it was run: (§1)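 Cells, 1,000 per well, were allowed to settle for 16 h at 37 C before compound addition. Five concentrations were tested for 48 h, and viability was read by ATPlite luminescence after 15 min at room temperature.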
# [2] = Primary redox qHTS assay for identification of artifact compounds. (AID 1845223); further: potency means the concentration at half of the fitted maximal effect
# How it was run: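 Amplex Red (25 uM) and HRP (250 mU/mL) in HBSS, with compounds for 15 min, then 250 uM DTT for 30 min, room temperature, dark. Fluorescence 525/598 nm read; normalized to DMSO and 10 uM DA3003; Hill fit.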
# [3] = system: Zika virus NS2B-NS3 protease (linked construct); assay: Primary screen NINDS Rhodamine qHTS for Zika virus inhibitors (AID 1347160); further: nearly all actives have a fitted effect of over 55% in size; further: potency means the concentration at half of the fitted maximal effect
# How it was run: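 Percent inhibition, normalized to uninhibited and enzyme-free controls, is fitted to a 4-parameter Hill equation. Fluorescence change comes from a 15-min cleavage of 1.5 microM bis-peptide Rhodamine110 substrate by 25 nM linked NS2B-NS3 at room temperature.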
# [4] = molecular target: Glutathione peroxidase 1 (Homo sapiens) (UniProt P07203); assay: Primary qHTS Assay for Inhibitors of Recombinant Selenoprotein Glutathione Peroxidase 1 (GPX1) (AID 1845191); settings: activity, negative = inhibition: at 48.8 µM (top of the series); further: potency means the concentration at half of the fitted maximal effect; nearly all actives have a fitted effect of over 65% in size
# How it was run: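 GR-coupled assay: compounds preincubated 30 min at room temperature with GPX1, then reaction started with CHP; final 10 nM GPX1, 1 mM GSH, 0.5 mM CHP, 0.5 mM NADPH, 100 nM GR, 0.01% BSA, pH 7.5 Tris buffer. NADPH fluorescence (340/450 nm) read at 0 and 15 min.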
# JEG-3 = assay: Primary qHTS to identify gynecologic anti-cancer compounds using libraries of approved drugs and bioactive compounds (AID 1345084); settings: Gynecologic cancer cell panel viability, ATPlite luminescence, 48 h; series mostly up to 57.5 µM; further: nearly all actives have a fitted effect of over 55% in size; further: potency means the concentration at half of the fitted maximal effect
# How it was run: as §1
# [5] = molecular target: Phospholipid hydroperoxide glutathione peroxidase GPX4 (Homo sapiens) (UniProt P36969); assay: Primary qHTS Assay for Inhibitors of Recombinant Selenoprotein Glutathione Peroxidase 4 (GPX4) (AID 1845192); further: nearly all actives have a fitted effect of over 65% in size; further: potency means the concentration at half of the fitted maximal effect
# How it was run: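 GR-coupled assay: recombinant GPX4 preincubated 30 min with compound at room temperature; final 200 nM GPX4, 1 mM GSH, 0.5 mM cumene hydroperoxide, 0.5 mM NADPH, 100 nM GR, 0.01% BSA, pH 7.5 Tris. NADPH fluorescence (340/450 nm) read at 0 and 15 min.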
# [6] = qHTS of pediatric cancer cell lines to identify multiple opportunities for drug repurposing: Primary screen for BT-12 cells (AID 1347101); further: nearly all actives have a fitted effect of over 25% in size; further: potency means the concentration at half of the fitted maximal effect
# How it was run: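 Cells (500-1,000/well) rested 5 h, then received compounds for 48 h; metabolically active cells were measured by CellTiter-Glo luminescence. Final concentrations spanned up to 46 µM (MIPE, 11-point) or 0.59 nM-46 µM (NPC, 8-point) in primary screens, 11-point in follow-ups.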
# [7] = Primary qHTS for small molecule stabilizers of the endoplasmic reticulum resident proteome: Secreted ER Calcium Modulated Protein (SERCaMP) assay (AID 1508630); settings: SH-SY5Y GLuc-SERCaMP (Gaussia luciferase released on ER calcium loss) secretion, thapsigargin, luminescence; series mostly up to 38.4 µM; further: potency means the concentration at half of the fitted maximal effect
# How it was run: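 GLuc-SERCaMP-expressing SH-SY5Y cells, pretreated 16 h with compound, are challenged with thapsigargin to empty ER calcium stores; after 4 h, coelenterazine is added directly to the medium and luminescence is imaged.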
# [8] = qHTS of pediatric cancer cell lines to identify multiple opportunities for drug repurposing: Primary screen for SK-N-MC cells (AID 1347093); settings: SK-N-MC viability, CellTiter-Glo luminescence, 48 h; series mostly up to 46 µM
# How it was run: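 Metabolically active cells were quantified by ATP-dependent luminescence (CellTiter-Glo, 15 min at room temperature) following 48 h treatment. Cells had been plated at 500-1,000 per well and settled for 5 h beforehand.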
# [9] = qHTS of pediatric cancer cell lines to identify multiple opportunities for drug repurposing: Primary screen for NB-EBc1 cells (AID 1347095)
# How it was run: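 ATP-based luminescence (CellTiter-Glo) quantifies viability after a 48-hour exposure. Compounds are dosed across 8 or 11 final concentrations; DMSO and 2.3 µM bortezomib serve as controls.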
# [10] = molecular target: Cytochrome P450 3A4 (Homo sapiens) (UniProt P08684); assay: Cytochrome P450 family 3 subfamily A member 4 (CYP3A4) small molecule antagonists: luciferase qHTS assay (AID 1645841; active means well fitted curve in the direction sought with a large enough effect in the repeat runs; inconclusive means weak or mixed curves; inactive means no such curve, though single readings can be large; an effect the other way counts as inactive or inconclusive; further: nearly all actives have a fitted effect of over 45% in size; further: potency means the concentration at half of the fitted maximal effect)
# How it was run: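 P450-Glo CYP3A4 enzyme with proluciferin substrate preincubated 10 min with compound at room temperature, then NADPH regeneration 1 h. Luciferin detection reagent added for 20 min; luminescence recorded. Ketoconazole positive control.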
# [11] = Drug repurposing screens with cells derived from glioblastoma tumor samples (AID 1345199); settings: GBM patient neurospheres viability, ATP luminescence, 48 h; Potency: tumour line A unless noted; series mostly up to 46 µM; further: potency means the concentration at half of the fitted maximal effect; nearly all actives have a fitted effect of over 40% in size
# How it was run: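 Four patient lines of CD133+ GBM neurospheres were screened at several concentrations; hits were retested in those lines plus three slower-growing GBM lines, using 48-hour treatment and ATP-based viability.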
# [12] = molecular target: Luciferin 4-monooxygenase (Photinus pyralis) (UniProt P08659); assay: Primary firefly luciferase (FLuc) qHTS assay for identification of artifact compounds. (AID 1845220); further: potency means the concentration at half of the fitted maximal effect; nearly all actives have a fitted effect of over 60% in size
# How it was run: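 Titrated compounds were incubated 15 min at RT, protected from light, with luciferin and ATP at 10 uM; reaction started with 10 nM FLuc, luminescence imaged at 5 min, and concentration-response fitted by Hill equation.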
# [13] = molecular target: Calcium and integrin-binding protein 1 (Homo sapiens) (UniProt Q99828); assay: Primary qHTS for Identification of Calcium Integrin Binding Protein 1 (CIB1) Competitor (AID 1508620);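 further: GST tagged CIB1 binding a fluorescein labelled alphaIIb integrin peptide tracer; top concentration of the series differs between compounds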
# How it was run: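 Fluorescence polarization competition: GST-tagged CIB1 (1 uM final) preincubated with compound 15 min at room temperature, then FITC-labelled alphaIIb peptide (100 nM final) added. After 15 min at room temperature, polarization read at Ex 480/Em 540.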
# Tags describe the fitted curve by direction and shape.
# Sequence of UniProt P11712 (P11712 whole entry, looked up): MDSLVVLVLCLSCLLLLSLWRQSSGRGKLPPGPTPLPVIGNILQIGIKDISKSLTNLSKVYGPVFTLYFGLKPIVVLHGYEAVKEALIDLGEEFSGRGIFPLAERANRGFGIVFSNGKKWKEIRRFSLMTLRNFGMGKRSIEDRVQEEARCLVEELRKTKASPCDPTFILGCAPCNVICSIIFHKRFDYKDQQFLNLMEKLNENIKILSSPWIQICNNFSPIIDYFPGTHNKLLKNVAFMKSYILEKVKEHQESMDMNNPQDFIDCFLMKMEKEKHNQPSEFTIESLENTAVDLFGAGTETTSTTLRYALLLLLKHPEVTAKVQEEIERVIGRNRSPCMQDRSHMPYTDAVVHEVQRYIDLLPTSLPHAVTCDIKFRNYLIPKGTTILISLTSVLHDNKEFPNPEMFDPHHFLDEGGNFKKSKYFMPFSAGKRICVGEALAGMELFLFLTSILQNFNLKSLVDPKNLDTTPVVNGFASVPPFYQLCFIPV
# Sequence of UniProt P36969 (P36969 whole entry, looked up): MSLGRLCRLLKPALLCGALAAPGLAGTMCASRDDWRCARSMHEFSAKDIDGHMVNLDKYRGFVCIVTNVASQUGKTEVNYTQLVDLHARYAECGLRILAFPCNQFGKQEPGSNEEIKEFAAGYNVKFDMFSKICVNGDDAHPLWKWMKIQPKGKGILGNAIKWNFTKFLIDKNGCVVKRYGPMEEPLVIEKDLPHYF
# Sequence of UniProt P07203 (P07203 whole entry, looked up): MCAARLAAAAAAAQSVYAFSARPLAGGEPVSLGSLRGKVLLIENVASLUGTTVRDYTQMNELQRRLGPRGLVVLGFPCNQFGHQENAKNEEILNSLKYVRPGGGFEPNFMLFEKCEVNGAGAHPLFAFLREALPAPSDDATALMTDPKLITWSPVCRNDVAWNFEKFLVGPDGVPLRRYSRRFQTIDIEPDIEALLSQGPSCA
# Sequence of UniProt P08684 (P08684 whole entry, looked up): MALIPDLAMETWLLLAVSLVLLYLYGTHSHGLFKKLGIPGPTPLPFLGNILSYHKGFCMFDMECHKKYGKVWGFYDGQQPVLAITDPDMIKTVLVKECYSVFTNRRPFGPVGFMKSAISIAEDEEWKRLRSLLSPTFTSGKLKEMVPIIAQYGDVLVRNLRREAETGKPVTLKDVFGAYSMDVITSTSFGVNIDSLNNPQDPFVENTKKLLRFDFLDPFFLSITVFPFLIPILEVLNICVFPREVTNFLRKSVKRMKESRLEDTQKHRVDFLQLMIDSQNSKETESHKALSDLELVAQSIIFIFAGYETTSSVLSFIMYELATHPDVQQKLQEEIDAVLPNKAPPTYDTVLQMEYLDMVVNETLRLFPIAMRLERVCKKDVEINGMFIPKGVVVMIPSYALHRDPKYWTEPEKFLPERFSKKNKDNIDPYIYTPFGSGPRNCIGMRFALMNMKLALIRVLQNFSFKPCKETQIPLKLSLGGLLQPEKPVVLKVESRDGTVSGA
# Sequence of UniProt Q99828 (Q99828 whole entry, looked up): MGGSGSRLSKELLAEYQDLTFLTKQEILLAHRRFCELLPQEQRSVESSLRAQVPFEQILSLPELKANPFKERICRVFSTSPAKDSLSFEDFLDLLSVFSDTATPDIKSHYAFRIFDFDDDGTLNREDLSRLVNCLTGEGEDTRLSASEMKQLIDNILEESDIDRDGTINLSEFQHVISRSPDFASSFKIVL
smiles,measurement,setting,value
O=C(CNC(=O)c1cccc(C(F)(F)F)c1)N[C@@H]1CCN(Cc2ccc(Cl)cc2)C1,Potency,[1],"inconclusive: 8.49 µM [inhibitor, partial curve]"
same,Potency,Es-2,"inconclusive: 5.01 µM [cytotoxic, single point]"
CCN1CCN(Cc2ccc(Nc3ncc(F)c(-c4cc(F)c5nc(C)n(C(C)C)c5c4)n3)nc2)CC1,Potency,[2],"inconclusive: 2.99 µM [activator, full curve, poor fit]"
CC(=O)c1ccc(O[C@@H]2O[C@H](CO)[C@@H](O)[C@H](O)[C@H]2O)cc1,Potency,[3],"inconclusive: 39.8 µM [inhibitor, partial curve, poor fit]"
Fc1ccc(N2CCCCC2)c(NC(=S)c2ccncc2)c1,Potency,[1],active: 6.01 µM
same,Potency,[4],"inconclusive: 25.5 µM [inhibitor, partial curve, poor fit]"
COc1cc(C2OCC3C(c4ccc(OC5OC(CO)C(O)C(O)C5O)c(OC)c4)OCC23)ccc1O (centres undefined),Potency,JEG-3,inactive
C=C(C)[C@@H]1CC[C@]2(C(=O)O)CC[C@]3(C)[C@H](CCC4[C@@]5(C)CCC(=O)C(C)(C)C5C(O)C[C@]43C)C12 (some centres undefined),Potency,Es-2,inactive
CC1=CC2/C=C(\C)CCC3OC(C)(C)OC3CCC(=O)C23C(=O)NC(CC(C)C)C3C1C (centres undefined),Potency,[2],inactive
CC12CCC3C1C(c1c(cc(O)c(C(=O)c4ccccc4)c1O)O2)C3(C)C (centres undefined),Potency,[3],"inconclusive: 12.6 µM [inhibitor, partial curve]"
same,Potency,[5],inactive
CN=C(NC#N)NCCSCc1csc(N=C(N)N)n1,Potency,[6],inactive
same,Potency,[7],"inconclusive: 31.6 µM [inhibitor, partial curve, poor fit]"
NS(=O)(=O)c1ccc(NC(=O)Nc2ccc(F)cc2)cc1,Potency,[1],"inconclusive: 12 µM [inhibitor, partial curve]"
COc1ccc(CN2C(=O)C(=O)c3cc(S(=O)(=O)N4CCC[C@H]4COc4cccnc4)ccc32)cc1,Potency,[4],active: 22.7 µM
same,Potency,[5],active: 25.5 µM
CC1=CC(=O)[C@]2(O[C@@H]3O[C@@H](C)[C@H](O)[C@@H](O)[C@H]3O)C=CO[C@@H](O[C@@H]3O[C@H](CO)[C@@H](O)[C@H](O)[C@H]3O)[C@H]12,Potency,Es-2,inactive
CN(C)[C@@H]1C(=O)C(C(N)=O)=C(O)[C@@]2(O)C(=O)C3=C(O)c4c(O)ccc(Cl)c4[C@@H](O)[C@H]3C[C@@H]12,Potency,[8],inactive
same,Potency,[9],inactive
same,Potency,[6],"inconclusive: 15.5 µM [cytotoxic, partial curve]"
same,Potency,[7],"inconclusive: 10 µM [inhibitor, partial curve, poor fit] and inactive and inconclusive: 2 µM [inhibitor, full curve, poor fit]"
same,Potency,[10],inactive
same,Potency,[1],"inconclusive: 38.9 µM [inhibitor, single point]"
same,Potency,[11],"inconclusive: 11.2 µM [inhibitor, partial curve, poor fit]"
CC/C=C\C/C=C\C/C=C\CCCCCCCC(=O)OCC(O)COC1OC(CO)C(O)C(O)C1O (centres undefined),Potency,[3],"inconclusive: 11.2 µM [inhibitor, single point]"
same,Potency,JEG-3,inactive
COc1cc(Br)c(Nc2nc(-c3c(C)nc4ncccn34)cs2)c(Br)c1,Potency,Es-2,active: 8.91 µM
same,Potency,JEG-3,"inconclusive: 2.82 µM [cytotoxic, full curve, poor fit]"
COc1ccc(/C=C/C(=O)O[C@@H]2[C@@H](O)[C@H](C)O[C@@H](O[C@H]3[C@@H]4C=CO[C@@H](O[C@H]5O[C@@H](CO)[C@H](O)[C@@H](O)[C@@H]5O)[C@@H]4[C@@]4(CO)O[C@@H]34)[C@@H]2OC(C)=O)cc1,Potency,[2],"inconclusive: 4.46 µM [activator, partial curve]"
CN1CC2CN(c3ccc4oc5ccccc5c(=O)c4c3)CC2C1 (centres undefined),Potency,[12],"inconclusive: 7.38 µM [inhibitor, partial curve, poor fit]"
CC1COC(Nc2ccc3ncnc(Nc4ccc(OCc5nccs5)c(Cl)c4)c3c2)=N1 (centres undefined),Potency,[3],inactive
same,Potency,[12],"inconclusive: 12 µM [inhibitor, partial curve]"
C/C=C(\C)C(=O)O[C@H]1[C@@H](O[C@]2(COC(=O)CC(C)C)O[C@H](COC(=O)C(C)C)[C@@H](OC(C)=O)[C@@H]2O)O[C@H](COC(C)=O)[C@@H](O)[C@@H]1O,Potency,[12],active: 4.46 µM
same,Potency,[2],"inconclusive: 8.9 µM [activator, partial curve, poor fit]"
C/C=C/C=C/C=C/C(=O)O[C@@H]1C=C2COC(=O)[C@]2(O)[C@@]2(C)CCCC(C)(C)[C@H]12,Potency,[3],"inconclusive: 12.6 µM [inhibitor, partial curve, poor fit]"
Cn1nccc1Nc1nccc(-c2ccn([C@H](CO)c3ccc(Cl)c(F)c3)c(=O)c2)n1,Potency,JEG-3,"inconclusive: 39.8 µM [cytotoxic, single point]"
COc1cc(O)cc(/C=C/c2cccc(O)c2)c1,Potency,[13],inactive
same,Potency,[5],inactive
Cc1cc(C(C)Nc2ccccc2C(=O)O)c2nc(N3CCOCC3)cc(=O)n2c1 (centres undefined),Potency,[10],"inconclusive: 23.9 µM [falling, partial curve, poor fit]"
same,Potency,[12],"inconclusive: 26.9 µM [inhibitor, single point]"
same,Potency,[2],"inconclusive: 5.32 µM [activator, partial curve, poor fit]"
same,Potency,JEG-3,"inconclusive: 6.31 µM [cytotoxic, partial curve]"
COC(=O)c1ccc(N2CCN(C)CC2)c(NC(=O)c2cccc(OC)c2)c1,Potency,[3],inactive
same,Potency,[1],inactive
